Assay results as given in PubChem BioAssay AID504332 (National Center for Advancing Translational Sciences (NCATS), 2011).
About 31,000 (8.9%) of roughly 350,000 compounds were called active. The shares of active, inactive and inconclusive entries below differ from those in the screen. Calls come from the whole dose curve; as a rule, active = well fitted inhibition curve with a large enough effect; inconclusive = small, poorly fitted or top-dose-only effect; inactive = no such curve, though single readings can be large or run the other way. A potency beside an inconclusive call is a rough fit, not a confirmed value.

target: Histone-lysine N-methyltransferase EHMT2 (Homo sapiens) (UniProt Q96KQ7); test: qHTS Assay for Inhibitors of Histone Lysine Methyltransferase G9a; conditions: G9a H3K9 monomethylation, AlphaScreen, 2 h; activity, negative = inhibition: at 59 µM (top of the series) unless noted; note: nearly all actives have a fitted effect of over 75% in size
UniProt Q96KQ7, sequence (Q96KQ7 whole entry, looked up): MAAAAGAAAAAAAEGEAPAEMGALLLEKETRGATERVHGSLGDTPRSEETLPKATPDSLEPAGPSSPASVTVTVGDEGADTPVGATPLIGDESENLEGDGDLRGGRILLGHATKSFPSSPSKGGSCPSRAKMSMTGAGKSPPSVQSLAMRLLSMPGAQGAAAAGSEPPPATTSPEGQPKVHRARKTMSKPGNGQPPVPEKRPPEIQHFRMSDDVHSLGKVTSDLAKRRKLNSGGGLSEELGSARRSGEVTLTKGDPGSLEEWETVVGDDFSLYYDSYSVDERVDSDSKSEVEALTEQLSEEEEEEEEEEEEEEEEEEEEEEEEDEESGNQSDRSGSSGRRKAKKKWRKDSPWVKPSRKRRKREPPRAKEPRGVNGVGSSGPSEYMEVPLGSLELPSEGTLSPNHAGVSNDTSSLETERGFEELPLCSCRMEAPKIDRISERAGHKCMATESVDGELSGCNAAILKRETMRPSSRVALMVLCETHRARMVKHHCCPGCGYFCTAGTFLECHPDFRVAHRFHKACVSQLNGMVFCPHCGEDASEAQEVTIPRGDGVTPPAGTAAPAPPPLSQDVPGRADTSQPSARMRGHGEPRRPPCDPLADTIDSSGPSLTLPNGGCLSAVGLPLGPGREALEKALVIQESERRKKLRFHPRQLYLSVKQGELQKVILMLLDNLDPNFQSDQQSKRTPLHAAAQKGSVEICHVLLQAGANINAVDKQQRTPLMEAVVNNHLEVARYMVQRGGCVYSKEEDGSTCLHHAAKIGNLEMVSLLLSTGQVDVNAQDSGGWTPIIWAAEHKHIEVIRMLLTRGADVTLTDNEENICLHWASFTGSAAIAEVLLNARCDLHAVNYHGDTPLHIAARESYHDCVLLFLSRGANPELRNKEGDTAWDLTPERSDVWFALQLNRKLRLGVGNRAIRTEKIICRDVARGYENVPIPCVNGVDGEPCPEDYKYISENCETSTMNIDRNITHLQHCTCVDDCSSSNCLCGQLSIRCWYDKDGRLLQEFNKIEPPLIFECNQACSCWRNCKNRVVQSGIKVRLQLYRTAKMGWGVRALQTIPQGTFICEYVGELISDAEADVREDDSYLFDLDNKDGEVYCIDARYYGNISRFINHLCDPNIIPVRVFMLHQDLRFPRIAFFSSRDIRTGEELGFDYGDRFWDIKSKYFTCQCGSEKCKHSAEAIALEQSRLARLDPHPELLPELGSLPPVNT
Procedure, shortened: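 Using a bead-based AlphaScreen, monomethylated H3K9 product from 2 h room-temperature reactions (G9a 20 nM, peptide 500 nM, SAM 20 uM) was detected with 0.5 ug/mL rabbit anti-H3K9me1 antibody.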
% is set by controls: 0 for no effect and ±100 for the full control effect; potency is the fitted concentration of half-maximal effect; tags give direction and shape of the fitted curve.

SMILES | Potency | activity, negative = inhibition
COc1cc(Br)c(-c2sc(Nc3ccccc3)n[n+]2-c2ccc(F)cc2)cc1OC | inconclusive: 50.1 µM [inhibitor, partial curve, poor fit] | 
Cc1[nH]c2ccccc2c1CN1CCC(Cc2ccccc2)CC1 | active: 14.1 µM | 
O=C(Nc1nc2c(Br)cc(Br)cc2c(=O)s1)c1ccco1 |  | inactive: -4.99% [at 102 µM]
O=C(c1ccco1)c1cn[nH]c1-c1ccc(Cl)cc1O | inconclusive: 100 µM [inhibitor, single point] | 
O=C(C1CCN(Cc2ccc(F)cc2)CC1)N(CCO)Cc1ccccc1 |  | inconclusive: -78.1% [inhibitor]
Cc1ccn2c(c1)nc(=S)n2C(=O)c1ccccc1 | active: 44.7 µM | 
C=CCN1C(c2ccc(OCC)cc2)=CS/C1=C(\C#N)c1nnc2n1CCCCC2 | active: 3.55 µM | 
Cn1c(=O)n(Cc2ccc(F)cc2)c(=O)c2c1nc1n2CCCN1C1CCCCC1 | inconclusive: 39.8 µM [inhibitor, single point] | 
N#Cc1cccc(NC(=O)C2SC(=Nc3ccccc3)C(C(=O)N3CCOCC3)=C2N)c1 (stereo unspecified) | inconclusive: 28.2 µM [inhibitor, single point] | 
Cc1ncc(CO)c(/C=N/NC(=S)Nc2cccc(Cl)c2)c1O | inconclusive: 3.55 µM [inhibitor, single point] | 
COc1ccc(C(C)=O)cc1CN1C(=O)C(C)N(c2ccc(C)cc2)C1=O (stereo unspecified) | inconclusive: 56.2 µM [inhibitor, partial curve, poor fit] | 
CC(CC(=O)O)Nc1ccccc1O (stereo unspecified) | active: 2 µM | 
CCN1CCN(c2cc(C)c3cc(NC(=O)c4cncc(Br)c4)ccc3n2)CC1 | inconclusive: 39.8 µM [inhibitor, single point] | 
CCOc1ccc(Nc2nc(N)nc(CN3CCN(c4ccccc4F)CC3)n2)cc1 | inconclusive: 50.1 µM [inhibitor, partial curve, poor fit] | 
O=C(O)c1cc(NCc2cc(O)ccc2O)ccc1O | active: 3.55 µM | 
COc1ccccc1-c1cc(NCc2ccccc2)ncn1 |  | inactive: 3.32% [at 0.501 µM]
O=C(c1cccc(C(F)(F)F)c1)N1CCN(S(=O)(=O)c2ccc(Cl)s2)CC1 | inconclusive: 0.224 µM [inhibitor, partial curve, poor fit] | 
COc1ccc(-n2c(Cc3cccn3C)nnc2SCC(N)=O)cc1 | active: 50.1 µM | 
O=C(Nc1cccc(F)c1)c1ccc(S(=O)(=O)N2CCOCC2)cc1 | inconclusive: 25.1 µM [inhibitor, partial curve, poor fit] | 
CCC1CCCCN1CCCNC(=O)c1cn(CC(C)C)c(=O)c2cc(OC)c(OC)cc12 (stereo unspecified) | inconclusive: 22.4 µM [inhibitor, partial curve, poor fit] | 
COC(=O)c1ccc(CSc2nc3c(cnn3-c3ccc(F)cc3)c(=O)[nH]2)o1 |  | inactive: -23%
COc1ccccc1N1CCN(S(=O)(=O)c2c(C)nc3sc(C)c(C)n3c2=O)CC1 |  | inactive: -2.29%
COc1ccc(N)cc1NC(=O)CN1CCCC1 | inconclusive: 50.1 µM [inhibitor, partial curve] | 
c1ccc2oc(NC3=NCN(C4CCCCC4)CN3)nc2c1 |  | inconclusive: -63.7% [inhibitor]

SMILES | Potency | activity, negative = inhibition
O=C(NCC(c1cccnc1)N1CCc2ccccc2C1)C(=O)Nc1ccccc1 (stereo unspecified) | inconclusive: 2.24 µM [inhibitor, partial curve, poor fit] | 
CCN(CC(=O)Nc1ccc(N2CCOCC2)cc1)C(=O)Cc1ccccc1 | inconclusive: 3.55 µM [inhibitor, single point] | 
O=C(NN=C1C2CC3CC(C2)CC1C3)c1cc(Cl)ccc1O |  | inactive: 102%
Cc1ccccc1NC(=O)Cc1nc(COC(=O)CC(C)c2ccccc2)cs1 (stereo unspecified) |  | inactive: 15.6% [at 102 µM]
O=C(Oc1oc(-c2ccco2)nc1C=Nc1ccccc1)c1ccoc1 | active: 7.08 µM | 
CC1(C)Cc2nc3scc(NC(=O)c4ccccc4)c3cc2CO1 | inconclusive: 50.1 µM [inhibitor, partial curve, poor fit] | 
COc1ccc(S(=O)(=O)N2CCN(C)CC2)cc1 |  | inactive: 11.6%
Oc1ccc(CNCc2ccc3c(c2)OCO3)c2cccnc12 | inconclusive: 3.16 µM [inhibitor, single point] | 
Cc1ccc2c(c1)COc1c3ccc(C(=O)N[C@@H](CO)C(C)C)cc3nn1-2 |  | inconclusive: -96.5% [inhibitor] [at 12.7 µM]
COc1cc2[nH]c(=O)n(CCCCCC(=O)N3CCN(c4ccccc4)CC3)c(=O)c2cc1OC | inconclusive: 11.2 µM [inhibitor, partial curve, poor fit] | 
O=C(c1ccc(N2CCCC2=O)cc1)N1CCN(c2cccc(C(F)(F)F)c2)CC1 | inconclusive: 89.1 µM [inhibitor, partial curve, poor fit] | 
O=C(Nc1nc2ccccc2[nH]1)C1CCN(C(=O)c2ccc(F)cc2)CC1 | active: 39.8 µM | 
CC(C)CC(=O)NC(=S)Nc1ccc(S(=O)(=O)N2CCCC2)cc1 | active: 14.1 µM | 
O=C(c1ccncc1)N1CCC2(CCCN(c3ccncc3)C2)CC1 |  | inactive: 3.66% [at 12.7 µM]
O=C(Nc1cnn(C23CC4CC(CC(C4)C2)C3)c1)c1cnn2c(C(F)(F)F)cc(-c3ccco3)nc12 | inconclusive: 2.24 µM [inhibitor, partial curve] | 
CC(C)(C)c1ccc(-c2csc(NNC3=NCCCCC3)n2)cc1 | active: 12.6 µM | 
Cc1c(NC(=S)NC(=O)c2ccc(COc3ccccc3)cc2)cccc1C(=O)O | inconclusive: 39.8 µM [inhibitor, partial curve, poor fit] | 
CN(c1cccc(Cl)c1)S(=O)(=O)c1cccc(C(=O)NCc2ccncc2)c1 | inconclusive: 20 µM [inhibitor, single point] | 
CCOc1ccc2ccccc2c1C1NC(=O)NC(C)=C1C(=O)OCCOC (stereo unspecified) | inconclusive: 89.1 µM [inhibitor, partial curve, poor fit] | 
Cn1cc(C(=O)c2ccc(F)cc2)cc1-c1nc2ccccc2n1C |  | inconclusive: -58.5% [inhibitor]
CCOC(=O)C(=O)Nc1nnc(CCc2ccccc2)s1 | inconclusive: 25.1 µM [inhibitor, single point] | 
O=C(COc1cccc2c1CCN(Cc1ccccc1F)C2=O)N1CCCCC1 |  | inactive: -30.9% [at 102 µM]
O=C(NCCSc1ncc(-c2ccccc2)[nH]1)c1ccco1 | inconclusive: 89.1 µM [inhibitor, partial curve, poor fit] | 
CCn1c(=O)n(CC)c2cc(S(=O)(=O)N3CCc4ccccc43)ccc21 | inconclusive: 79.4 µM [inhibitor, partial curve, poor fit] | 

SMILES | Potency | activity, negative = inhibition
CCOc1ccccc1NC(=O)CN1c2ccccc2S(=O)(=O)c2ccccc21 |  | inactive: -7.49%
CCC(=O)Oc1ccc2c(C)cc(=O)oc2c1C(=O)c1ccccc1 | inconclusive: 7.08 µM [inhibitor, single point] | 
COCCn1c(=O)sc2ccccc2c1=O |  | inactive: 1.54% [at 102 µM]
CC1CCCN(Cc2nc3c(c(=O)n(C)c(=O)n3C)n2CC(N)=O)C1 (stereo unspecified) | inconclusive: 6.31 µM [inhibitor, single point] | 
NNC(=O)C1c2ccccc2Oc2ccccc21 |  | inactive: 5.2% [at 0.501 µM]
Cn1cnnc1Sc1ccc(/C=C(\CC(=O)O)c2nc3ccccc3s2)cc1[N+](=O)[O-] | inconclusive: 89.1 µM [inhibitor, partial curve, poor fit] | 
CCOC(=O)C1=C(C)NC2=C(C(=O)CC(C)(C)C2)C1c1cccc(C)n1 (stereo unspecified) |  | inactive: -24.1% [at 102 µM]
C/C(=N\NC(=O)C1CC1)c1ccc(C)c(C)c1 | inconclusive: 0.708 µM [inhibitor, full curve] | 
CC(C)C(c1nnnn1C(C)(C)C)N1CCN(Cc2cccnc2)CC1 (stereo unspecified) | inconclusive: 8.91 µM [inhibitor, full curve, poor fit] | 
COc1cccc2cc(C(N)=O)/c(=N\NC(=O)c3ccccc3)oc12 |  | inactive: -3.82% [at 102 µM]
NC(=O)[C@@H]1CCOc2c(I)cc([N+](=O)[O-])cc2C(=O)N[C@@H](CO)C(=O)NCC(=O)N1 | active: 44.7 µM | 
O=C1CCc2cc(S(=O)(=O)N3CCN(c4ccc(F)cc4)CC3)cc3c2N1CC3 | inconclusive: 79.4 µM [inhibitor, partial curve, poor fit] | 
CN(CC(=O)Nc1ccccc1Cl)C(=O)COC(=O)c1ccc(Cl)cc1[N+](=O)[O-] | inconclusive: 89.1 µM [inhibitor, single point] | 
Cc1[nH]c(=S)c(C#N)c(C)c1C(=O)Nc1ccccc1 | active: 1.26 µM | 
O=C(CN1C(=O)C(=O)N(C2CCCC2)C1=O)Nc1ccc(Cl)cc1C(F)(F)F |  | inactive: 21.6% [at 2.33 µM]
COc1cccc(OC)c1C(=O)N1CCN(Cc2ccccc2C)CC1 | active: 31.6 µM | 
Cc1ccc(C)c(CN2C(=O)c3ccccc3S(=O)c3ccc(C(=O)N4CCN(c5ccccn5)CC4)cc32)c1 (stereo unspecified) |  | inactive: -8.5% [at 102 µM]
Cc1[nH]c2ccc(C(=O)NC3CCC(C)CC3)cc2c1C (stereo unspecified) |  | inactive: -2.55% [at 102 µM]
Cc1nn(C)c(C)c1S(=O)(=O)N(CC(=O)N1CCN(c2ccccc2)CC1)c1ccc(C(C)C)cc1 |  | inactive: -15.9%
O=C1/C(=C/c2ccccc2F)SC(=S)N1CC(=O)N1CCCCC1c1cccnc1 (stereo unspecified) | active: 5.01 µM | 
COc1ccc(NC(=O)c2sc3nc4c(cc3c2N)CCCCCC4)cc1OC | inconclusive: 4.47 µM [inhibitor, partial curve, poor fit] | 
Cc1nnc(SCc2ccc(Cl)c(Cl)c2)s1 |  | inactive: 1.7% [at 102 µM]
CCOc1ccc(S(=O)(=O)NC(Cc2c[nH]c3ccccc23)C(=O)O)cc1 (stereo unspecified) |  | inactive: -17.8% [at 102 µM]
